From PubChem BioAssay (NCATS)
Where “and” joins values, the source holds several entries; their conditions need not be identical. Equal values may be shown once. The shares of active, inactive and inconclusive entries below differ from those in the screen. A potency beside an inconclusive call is a rough fit, not a confirmed value. Calls of active or inactive are those of the source. Calls follow the shape of the dose curve; as a rule, active = well fitted cell-killing curve with a large enough effect; inconclusive = small, poorly fitted or top-dose-only effect, or effect the other way; inactive = flat fitted curve, though single readings scatter.

Each compound was assayed on PA-1 (assay: Primary qHTS to identify gynecologic anti-cancer compounds using libraries of approved drugs and bioactive compounds (AID 1345084; also: nearly all actives have a fitted effect of over 55% in size)). Conditions: Gynecologic cancer cell panel viability, ATPlite luminescence, 48 h; series mostly up to 57.5 µM; activity change, negative = cytotoxicity: at the top concentration.
Method in brief: (§1)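 Cells, 1,000 per well, were allowed to settle for 16 h at 37 C before compound addition. Five concentrations were tested for 48 h, and viability was read by ATPlite luminescence after 15 min at room temperature.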
% is scaled to controls: 0 for no effect and ±100 for the full control effect; potency is read from the fitted curve at half-maximal effect; tags tell the direction and shape of the fitted curve.

Compound	Potency	activity change, negative = cytotoxicity
CN(C)Cc1ccc(-c2nc3cccc4c3n2CCNC4=O)cc1	inconclusive: 39.8 µM [cytotoxic, single point]	
Clc1ccccc1C(c1ccccc1)(c1ccccc1)n1ccnc1	inconclusive: 39.8 µM [cytotoxic, single point]	
Cc1cc2c(cc1C1(c3ccc(C(=O)O)cn3)CC1)C(C)(C)CCC2(C)C	inconclusive: 39.8 µM [cytotoxic, single point]	
Cc1nc(Nc2ncc(C(=O)Nc3c(C)cccc3Cl)s2)cc(N2CCN(CCO)CC2)n1	inconclusive: 282 nM [cytotoxic, full curve, poor fit] and active: 251 nM	
CNC(=O)c1ccc2cc(C3(O)CCn4cncc43)ccc2c1 (stereo not given)		inactive: 5.1%
CCc1nc(N)nc(N)c1-c1ccc(Cl)cc1	active: 7.94 µM	
CC[C@@]1(O)C(=O)OCc2c1cc1n(c2=O)Cc2cc3cc(O)ccc3nc2-1	active: 0.282 µM	
C[C@@H](NCCCc1cccc(C(F)(F)F)c1)c1cccc2ccccc12	inconclusive: 35.5 µM [cytotoxic, single point]	
CN(C[C@@H]1COCCO1)S(=O)(=O)Nc1ccc2ccc3ncc(-c4cnn(C)c4)cc3c(=O)c2c1	inconclusive: 7.94 µM [cytotoxic, partial curve, poor fit]	
COc1cc(N2CCC(N3CCN(C)CC3)CC2)ccc1Nc1ncnc(Nc2ccccc2S(=O)(=O)C(C)C)n1	active: 7.94 µM	
Cc1ccc(-n2[nH]c(C)c(N=Nc3cccc(-c4cccc(C(=O)O)c4)c3O)c2=O)cc1C	active: 1.58 µM	
Cc1ccn(-c2ccc(-c3ncco3)cc2)c(=O)c1-c1ccc2nc(N)ncc2c1	active: 11.2 µM	
OCCN1CCN(CCCN2c3ccccc3Sc3ccc(C(F)(F)F)cc32)CC1		inactive: -8.61%
CC1CCC(C(=O)N(c2cc(C#CC(C)(C)C)sc2C(=O)O)C2CCC(O)CC2)CC1 (stereo not given)		inactive: -1.52%

Each compound was assayed on SKOV3 in the same assay as above. Conditions: Gynecologic cancer cell panel viability, ATPlite luminescence, 48 h; series mostly up to 57.5 µM; activity change, negative = cytotoxicity: at the top concentration.
Method in brief: as §1

Compound	Potency	activity change, negative = cytotoxicity
C[C@@]1(C(=O)Nc2ccc(F)nc2)CCCN1c1nc(Nc2cc(C3CC3)[nH]n2)c2cccn2n1	inconclusive: 35.5 µM [cytotoxic, single point]	
CN(C)Cc1ccc(-c2nc3cccc4c3n2CCNC4=O)cc1		inactive: 3.3%
Cc1cc2c(cc1C1(c3ccc(C(=O)O)cn3)CC1)C(C)(C)CCC2(C)C	inconclusive: 25.1 µM [cytotoxic, single point]	
Cc1nc(Nc2ncc(C(=O)Nc3c(C)cccc3Cl)s2)cc(N2CCN(CCO)CC2)n1	active: 14.1 µM and inconclusive: 8.91 µM [cytotoxic, partial curve, poor fit]	
CC(C)NCC(O)COc1ccc(COCCOC(C)C)cc1 (stereo not given)		inactive: 0%
COc1cc(N2CCC(N3CCN(C)CC3)CC2)ccc1Nc1ncc(Cl)c(Nc2ccccc2S(=O)(=O)C(C)C)n1	inconclusive: 2.82 µM [cytotoxic, full curve, poor fit]	
CNC(=O)c1ccc2cc(C3(O)CCn4cncc43)ccc2c1 (stereo not given)		inactive: 5.95%
CC(C)(C#N)c1cc(Cn2cncn2)cc(C(C)(C)C#N)c1		inactive: 2.53%
CCCCOc1ccc(C(=O)Nc2ccc(F)cc2F)cc1	inconclusive: 0.562 µM [rising, full curve, poor fit]	
CC(C)(C)NCC(O)c1ccc(O)c(CO)c1 (stereo not given)	inconclusive: 39.8 µM [rising, single point]	
CCOC(=O)C1=C[C@]2(CC)CCCN3CCc4c(n1c1ccccc41)[C@@H]32	inconclusive: 1.26 µM [rising, full curve]	
CC[C@@]1(O)C(=O)OCc2c1cc1n(c2=O)Cc2cc3cc(O)ccc3nc2-1	inconclusive: 0.447 µM [cytotoxic, full curve, poor fit]	
CN1CCN(c2cccc(Nc3nc4c(-c5ccc(S(C)(=O)=O)cc5)cccn4n3)c2)CC1	active: 2.82 µM	
C[C@@H](NCCCc1cccc(C(F)(F)F)c1)c1cccc2ccccc12	inconclusive: 39.8 µM [cytotoxic, single point]	
Cc1coc2c1C(=O)C(=O)c1c-2ccc2c1CCCC2(C)C	inconclusive: 35.5 µM [cytotoxic, single point]	
CCCN[C@H]1CCc2nc(N)sc2C1		inactive: -3.24%
COc1c(N2CCNC(C)C2)c(F)cc2c(=O)c(C(=O)O)cn(C3CC3)c12 (stereo not given)	inconclusive: 22.4 µM [rising, single point]	
CN(C[C@@H]1COCCO1)S(=O)(=O)Nc1ccc2ccc3ncc(-c4cnn(C)c4)cc3c(=O)c2c1	inconclusive: 8.91 µM [cytotoxic, partial curve, poor fit]	
Clc1ccc(C(Cn2ccnc2)OCc2c(Cl)cccc2Cl)c(Cl)c1 (stereo not given)	inconclusive: 0.891 µM [rising, full curve, poor fit]	
COc1cc(N2CCC(N3CCN(C)CC3)CC2)ccc1Nc1ncnc(Nc2ccccc2S(=O)(=O)C(C)C)n1	inconclusive: 15.8 µM [cytotoxic, partial curve, poor fit]	
CN(C)[C@@H](CCOc1cccc2ccccc12)c1ccccc1	inconclusive: 15.8 µM [cytotoxic, partial curve, poor fit]	
CN1C(C(=O)Nc2ccccn2)=C(O)c2ccccc2S1(=O)=O	inconclusive: 5.62 µM [rising, partial curve, poor fit]	
Cc1ccn(-c2ccc(-c3ncco3)cc2)c(=O)c1-c1ccc2nc(N)ncc2c1	active: 3.55 µM	
CC1(C)[C@H](C(=O)O)N2C(=O)C[C@H]2S1(=O)=O	inactive	
CC1CCC(C(=O)N(c2cc(C#CC(C)(C)C)sc2C(=O)O)C2CCC(O)CC2)CC1 (stereo not given)	inconclusive: 12.6 µM [rising, partial curve]	
CN(C)C(=N)N=C(N)N		inactive: 16.8%
